# The whole screen tested about 310,000 compounds, of which about 2,200 (0.71%) showed an effect of 50% or more. The effect is printed as a negative number. The list shows a part of the results.
# Molecular target: human ether-à-go-go-related gene (hERG) potassium channel (human, UniProt Q12809)
# Assay: primary screen, population patch clamp on CHO cells stably expressing hERG
# Chain of human ether-à-go-go-related gene (hERG) potassium channel (Q12809 whole entry, looked up): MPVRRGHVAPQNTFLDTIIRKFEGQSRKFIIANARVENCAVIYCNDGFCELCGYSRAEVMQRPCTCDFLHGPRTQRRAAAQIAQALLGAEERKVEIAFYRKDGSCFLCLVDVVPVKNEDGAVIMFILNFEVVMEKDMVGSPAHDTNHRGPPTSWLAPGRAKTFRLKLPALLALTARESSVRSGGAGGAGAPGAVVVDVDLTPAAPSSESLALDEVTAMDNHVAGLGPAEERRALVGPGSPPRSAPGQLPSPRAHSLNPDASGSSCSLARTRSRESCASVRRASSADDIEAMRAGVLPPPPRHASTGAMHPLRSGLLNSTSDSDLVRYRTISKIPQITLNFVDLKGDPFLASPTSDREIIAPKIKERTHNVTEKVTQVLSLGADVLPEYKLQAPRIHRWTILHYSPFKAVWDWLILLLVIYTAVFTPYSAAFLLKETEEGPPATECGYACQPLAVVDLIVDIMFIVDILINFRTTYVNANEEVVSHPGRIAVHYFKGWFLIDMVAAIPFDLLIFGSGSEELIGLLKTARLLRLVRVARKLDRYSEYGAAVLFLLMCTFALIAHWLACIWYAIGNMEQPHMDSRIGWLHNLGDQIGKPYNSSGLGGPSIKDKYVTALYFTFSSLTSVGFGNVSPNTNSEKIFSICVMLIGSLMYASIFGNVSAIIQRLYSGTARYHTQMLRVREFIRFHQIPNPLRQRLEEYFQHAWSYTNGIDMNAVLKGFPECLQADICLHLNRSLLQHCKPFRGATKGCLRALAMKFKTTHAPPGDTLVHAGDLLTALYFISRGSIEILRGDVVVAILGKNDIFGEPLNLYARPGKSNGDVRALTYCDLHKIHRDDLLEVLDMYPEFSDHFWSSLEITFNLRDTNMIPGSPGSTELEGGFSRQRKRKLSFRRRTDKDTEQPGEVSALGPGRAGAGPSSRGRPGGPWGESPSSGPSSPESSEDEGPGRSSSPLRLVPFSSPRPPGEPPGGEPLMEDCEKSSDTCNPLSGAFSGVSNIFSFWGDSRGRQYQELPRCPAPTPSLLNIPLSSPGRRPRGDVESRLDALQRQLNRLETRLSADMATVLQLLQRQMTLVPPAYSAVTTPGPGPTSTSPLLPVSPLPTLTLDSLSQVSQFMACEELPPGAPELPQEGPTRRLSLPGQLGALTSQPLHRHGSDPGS
row,Structure (SMILES),"hERG current change (%, negative = inhibition) at 1uM [%]"
1,CCN1CCN(CCCNC(=O)CCC(=O)N2CC(C)Oc3ccc(C)cc32)CC1 (stereo not shown),6.55
2,COc1ccc(N(C(=O)c2ccc(Br)o2)C2C=CS(=O)(=O)C2)cc1 (stereo not shown),-10.1
3,NC(=O)C1CCN(c2ncnc3c2c(-c2ccccc2)cn3-c2ccccc2)CC1,10.2
4,C=CCc1cccc(/C=N/NC(=O)CCCNc2ccc(C)cc2)c1O,11.9
5,CC(=O)c1ccc(NC(=S)NCCc2ccc(S(N)(=O)=O)cc2)cc1,15.7
6,Cc1ccc(N2C(=O)C(Cl)=C(N3CCOCC3)C2=O)cc1Cl,-10.9
7,COc1ccc2c(c1)CCc1c-2n[nH]c1C(=O)O,12.4
8,O=C(c1ccccc1)N1CCN(C(=O)C2CC2)CC1,16.7
9,Cc1cc(C(=O)CCC(=O)NNC(=O)c2ccccc2O)c(C)s1,8.28
10,COC(=O)/C=C/c1ccccc1CN1[C@@H](CC(=O)OC)c2ccccc2S1(=O)=O,9.09
11,COc1ccc(CC(=O)NCc2ccccc2)cc1S(=O)(=O)N1CCOCC1,9.22
12,CCN(CC(=O)Nc1ccccc1C(F)(F)F)C(=O)c1oc2c(Cl)cccc2c1C,4.84
13,O=C1Nc2ccc(Br)cc2C12NNc1ccccc1O2 (stereo not shown),10.8
14,CCC(=O)N1CCc2cc(S(=O)(=O)N(CC)c3cccc(C)c3)ccc21,-7.47
15,O=C(CSc1cc(Cl)ccc1Cl)NC1CC1,4.67
16,CC1CCN(c2ccc(-c3cccc(NC(=O)C(F)(F)F)c3)nn2)CC1,0.79
17,CCN1CCN(C(=O)c2cc3c(-c4ccc(Cl)cc4)nn(C)c3s2)CC1,-15.7
18,CCOC(=O)N1CCN(C(=O)CCN2C(=O)COc3ccc(C)cc32)CC1,2.66
19,Cc1cccc(C(=O)N=c2c(C#N)cc3c(=O)n4cccc(C)c4nc3n2Cc2ccco2)c1,-23.4
20,Cc1ccc(-c2nc3cc(NC(=O)C(C)C)ccc3o2)cc1,6.97
21,CC1CCCC(NC(=O)CSc2ncccc2C(=O)O)C1C (stereo not shown),8.49
22,CN(CCOC(=O)c1ccco1)Cc1ccccc1,4.43

row,Structure (SMILES),"hERG current change (%, negative = inhibition) at 1uM [%]"
1,COC(=O)CCN(C(=O)c1ccc(N2CCCCC2)c([N+](=O)[O-])c1)c1ccccn1,11.8
2,COc1cc2ccccc2cc1C(=O)Nc1ccc(C)cc1,11.9
3,COc1cc(C(=O)Oc2ccccc2/C=N/NC(=O)c2ccc(Cl)cc2)cc(OC)c1OC,12
4,C=CCNC(=O)C1CC1(c1ccccc1)c1ccccc1 (stereo not shown),3.83
5,COC(=O)c1c(C(=O)OC)c2cc(C(=O)c3ccccc3)ccn2c1Cl,2.87
6,Brc1ccccc1OCCCCN1CCCCC1,-1.28
7,COc1cc(Cl)ccc1OCc1cc(C(=O)N2C[C@H]3CC[C@H]2C3)no1,15.3
8,CCN(CC)S(=O)(=O)c1ccc(N2CCCC2)c(C(=O)OCC(=O)Nc2cc(C)on2)c1,7.53
9,CCOC(=O)c1sc(NC(=O)C(OC(C)=O)c2ccccc2)nc1C (stereo not shown),4.99
10,CCN1CCN(CCCN(Cc2ccco2)C(=S)Nc2ccc(Cl)c(C)c2)CC1,-21
11,CC(C)C(NC(=O)c1c(F)cccc1F)C(=O)OCN1C(=O)c2ccccc2C1=O (stereo not shown),15.6
12,COc1ccc(-n2c(=S)[nH]c3cc(C(=O)NCc4ccco4)ccc3c2=O)cc1OC,6.16
13,COC(=O)c1cccc(N2C(=O)C(Cl)=C(N3CCOCC3)C2=O)c1,-1.72
14,COc1cc2nc(C3CC3)n(NC(=O)c3ccc(F)cc3)c(=O)c2cc1OC,7.89
15,Cc1ccc(CNC(=O)CSc2nc(=O)n3cccc(C)c3n2)cc1,2
16,CC1(C)C(=O)Nc2ccccc2N1C(=O)Cn1ncc(Cl)c(Cl)c1=O,14.9
17,CSc1ccc(/C=C(/NC(=O)c2ccccc2)C(=O)N2CCN(C)CC2)cc1,-48.7
18,Cc1cccnc1NC(=O)c1ccc([N+](=O)[O-])o1,3.55
19,Cc1nnc(SC(C(=O)Nc2cc(Cl)cc(Cl)c2)c2ccccc2)[nH]c1=O (stereo not shown),11.1
20,CN1C(=O)C2(c3ccccc31)N(C)CC(c1ccccc1)C21SC(=S)N(Cc2ccco2)C1=O (stereo not shown),8.25
21,O=C(NNC(=S)Nc1ccccc1Cl)c1ccccc1Br,19.2
22,ONC(=Nc1ccc(Cl)cc1)c1ccc(Cl)cc1,0.0458

row,Structure (SMILES),"hERG current change (%, negative = inhibition) at 1uM [%]"
1,O=[N+]([O-])c1cccc(NC(=S)N2CCOCC2)c1,14.1
2,Cc1oc2c(C)c(O)ccc2c(=O)c1N1C(=O)c2ccccc2C1=O,3.65
3,CCN(C(=O)Cn1nc(C)c([N+](=O)[O-])c1C)C1CCS(=O)(=O)C1 (stereo not shown),14.6
4,CCOC(=O)CSc1nnc(CNC(=O)c2ccc(OC)cc2OC)n1C,-6.27
5,Cc1ccc(-c2cc(-c3c(C)nn(C)c(=O)c3N)[nH]n2)cc1,13.8
6,O=C(NCc1ccc(Cl)c(Cl)c1)C1CCCC1,0.519
7,CN(CC(=O)Nc1c(Cl)cccc1Cl)C(=O)c1ccccc1SCC(=O)N1CCCC1,9.02
8,COC(=O)c1sc(NC(=O)/C=C/c2ccc(C)o2)nc1C,19.6
9,COc1cc(/C=N/NC(=O)c2ccc3c(c2)OCCO3)cc(Br)c1O,0.0005
10,CCOC(=O)N1CCN(C(=O)c2ccccc2N(Cc2ccccc2)S(=O)(=O)c2ccc(OC)cc2)CC1,-0.0391
11,O=C(CC1SC(=O)N(Cc2cccc3ccccc23)C1=O)Nc1nccs1 (stereo not shown),8.62
12,Cc1ccc(S(=O)(=O)Cn2nnnc2C(C(C)C)N2CCN(c3nc4ccccc4s3)CC2)cc1 (stereo not shown),16.3
13,Cc1ccc(CNC(=O)C2CCCN(C(=O)N(C)C)C2)cc1 (stereo not shown),1.95
14,COc1ccc(C(=O)NC2CC2)cc1OC1CCN(Cc2ccc(F)cc2Cl)CC1,-62
15,Cc1nc2ccc(Nc3ccncc3)cc2s1,-0.0672
16,CN1CCN(C2=C(Cl)C(=O)C(c3cnc(N4CCCCC4)s3)=C(Cl)C2=O)CC1,17.3
17,O=C(NCCC(=O)N1CCN(c2ncccn2)CC1)c1ccccc1Cl,10.3
18,COc1ccc(NC(=O)CNC(c2ccccc2)c2ccccc2)cc1Cl,16.6
19,COc1ccc(Nc2nc3ccc(C)cc3cc2C#N)c(OC)c1,4.78
20,COc1cccc(C(=O)N2CCN(C3CCC(c4ccccc4)CC3)CC2)c1OC.O=C(O)C(=O)O (stereo not shown),3.34
21,CC1=NN(c2ccccc2)C(=O)C1N=Nc1cccc(O)c1 (stereo not shown),12.9
22,Cc1ccsc1/C=N/NC(=O)c1nnn(-c2nonc2N)c1-c1ccc2c(c1)OCO2,0.197

row,Structure (SMILES),"hERG current change (%, negative = inhibition) at 1uM [%]"
1,Cc1ccc(C)n1-c1ccc(C(=O)NCc2cccnc2)cc1,10.2
2,Cc1ccc(C)c(OCCC(=O)N2CCN(S(=O)(=O)c3cc(C)ccc3C)CC2)c1,12.2
3,O=C(COc1nncc2ccccc12)Nc1ccc(Br)cc1F,14.5
4,CCOC(=O)CC(=O)CSc1nc(-c2cccnc2)cc(C)c1C#N,1.05
5,COC(=O)c1cc(OC)c(OC)cc1NC(=S)N1CCCC1,10.4
6,CCOC(=O)c1c(-c2ccc(Cl)cc2)cn2ccccc12,8.58
7,COc1ccccc1CC(=O)Nc1ccon1,10.6
8,O=C(CCC(=O)N1CCN(Cc2ccc(F)cc2)CC1)Nc1nnc(C(F)(F)F)s1,9.26
9,CC1Oc2ccccc2N(CC(=O)NCc2ccc3c(c2)OCO3)C1=O (stereo not shown),14.5
10,CC1CC(C)CN(CCOc2ccccc2-c2ccccc2)C1.O=C(O)C(=O)O (stereo not shown),-7.35
11,Cc1cc(C)n(-c2nc(NCCCN(C)C)c3c4c(sc3n2)COC(C)(C)C4)n1,3.82
12,CCC(C(=O)N1CCOCC1)n1c(C(=O)OC)cc2occc21 (stereo not shown),14.9
13,Cc1ccc(-c2cc(C(=O)N/N=C/c3cccnc3)n[nH]2)o1,9.21
14,COc1ccc(OCCC(=O)OCC(=O)NCc2ccccc2)cc1,13.3
15,O=C(CSc1nc2[nH]ncc2c(=O)[nH]1)Nc1ccc(OC(F)(F)F)cc1,14.4
16,COc1cc([N+](=O)[O-])cc(/C=N\NC(=O)C2COc3ccccc3O2)c1O (stereo not shown),8.58
17,COc1ccc(-c2noc(CN(Cc3nccn3C)C(C)C)n2)cc1,8.87
18,C/C(=N\NC(=O)CC#N)c1cc2ccc(O)cc2oc1=O,9.26
19,N#CSCC(=O)c1cccc2ccccc12,11.3
20,COc1ccc(C(=O)Nc2nnc(C3=COCCO3)o2)cc1,13.3
21,Cc1cc(C(=O)NCc2ccco2)c2ccccc2n1,2.67
22,Cc1cc(C(=O)N/N=C/c2ccc(N(C)C)o2)cs1,9.57
